Each structure is given as a SMILES string.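 Assay format: 96-well plates, 48-hour exposure. GI50 marks 50% less growth.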 The source made the active and inactive calls. No stated cut-off is given here; in the data, active = GI50 up to about 1.1 µM and inactive = higher.

For this assay, the system named is NCI-H322M. In words: NCI-60 cell line screen, 48 h.
Consider `c1ccc2[nH]c3nc4ccccc4c-3cc2c1`, for which the GI50 was active: 0.244 µM. As to `Fc1cccc(Cl)c1/C=N\N=C1c2ccccc2-c2ccccc21`, the GI50 was inactive: > 100 µM.

As to `COc1ccc(/C=C2/CSC/C(=C/c3ccc(OC)c(OC)c3)C2=O)cc1OC`, the GI50 is inactive: 5.56 µM.

As for `COc1cc(/C=C2\CCC(C)C3=C(c4cc(OC)c(OC)c(OC)c4)C(C#N)=C(N)OC32)cc(OC)c1OC` (stereo unspecified), the GI50 was inactive: 3.83 µM. `CC1(c2cccc3c2C2(O)C=CC4(CCC32)OCCO4)OCCO1` (stereo unspecified): the GI50 is inactive: > 100 µM. For the compound `NC(=O)/C=c1/c2ccccc2n2nc3ccccc3c12`, the GI50 was inactive: 29.4 µM.

Turning to `N#Cc1c(-c2ccc(Cl)cc2)c2c([nH]c1=O)-c1ccccc1SC2`, the GI50 was inactive: 37.2 µM. For the compound `Cc1nc2ccccc2c(=O)n1NC(=O)c1ccccc1O`, the GI50 was inactive: > 100 µM.

As to `COc1c2c(cc3c1C(=O)Cc1ccc4c(c1CN(C)CC3)OCO4)OCO2`, the GI50 was inactive: 80.9 µM.

As to `CC1OC(OC2C(OC3CCC4(C)C(CCC5(C)C4CC=C4C6CC(C)(C)CCC6(C(=O)O)CCC45C)C3(C)CO)OCC(O)C2O)C(O)C(O)C1O` (stereo unspecified), the GI50 is inactive: 18.7 µM. As for `CCN(CC)CCN1CCc2c([nH]c3ccccc23)C1c1cccnc1` (stereo unspecified), the figure is inactive: > 100 µM. With `O=C1NC(Cc2ccc(O)cc2)C(=O)N2CCCC12` (stereo unspecified), the GI50 was inactive: > 100 µM. With `CCOC1OC(=O)c2cc3ccc4c(c3c(-c3ccc5c(c3)OCO5)c21)OCO4` (stereo unspecified), the GI50 is inactive: 3.95 µM.

For `O=C(c1cc(Cl)cc(Cl)c1)N(C(=O)N1CCN(c2ccccc2)CC1)c1ccccc1`, the GI50 is inactive: 67.9 µM.

In the case of `O=C(CCc1n[nH]c(=S)o1)Nc1cc(Cl)c(Cl)cc1Cl`, the GI50 was inactive: 55.7 µM. In the case of `O=c1c2ccccc2nc(Cc2nc(-c3ccc(Cl)cc3)cs2)n1-c1ccc(Cl)cc1`, the GI50 was inactive: 84.9 µM. With `c1ccc2c(c1)N=C(c1ccc3ccccc3c1)CC(c1cccc3ccccc13)S2` (stereo unspecified), the GI50 was inactive: 65.6 µM. For `O=C(c1ccccc1)C(C(=O)c1ccccc1)C1(O)C(=O)c2ccccc2C1=O`, the GI50 is inactive: 45.3 µM. Turning to `Nc1ccc(/C=C/c2ccc3cccnc3c2)cc1`, the GI50 is inactive: > 100 µM. As to `O=[N+]([O-])C=C1c2ccccc2-c2ccccc21`, the GI50 was inactive: 17.6 µM. Take `Cc1cc2c(=O)c3ccccc3[nH]c2c(C(=O)O)c1C`: the GI50 is inactive: > 100 µM.

In the case of `CC(=O)Nc1ccc(S(=O)(=O)/N=C2\C=CC(=O)c3ccccc32)cc1`, the GI50 was inactive: 15.6 µM.

Turning to `CCn1c2ccc(C(=O)CCCN(C)C)cc2c2cc(C(=O)CCCN(C)C)ccc21`, the GI50 was active: 0.843 µM. Regarding `C=C=C(C(=O)OC)[S+]([O-])c1ccccc1[N+](=O)[O-]` (stereo unspecified), the GI50 is inactive: > 100 µM. On to `CC1NOC(=O)C1/N=N/c1ccccc1Cl` (stereo unspecified), for which the GI50 is inactive: > 100 µM. On to `CC1=C2C3=C(C)C(=O)C(C)(C)CC[C@@]3(C)[C@]2(C)CCC(C)(C)C1=O`, for which the GI50 is inactive: > 100 µM.

For the compound `Sc1nnc(/C=C/c2ccc(Cl)c(Cl)c2)[nH]1`, the GI50 was inactive: > 100 µM.

For `COc1ccc(C(=O)O)c(Br)c1OCc1ccccc1`, the GI50 was inactive: 95.7 µM. As for `COc1ccccc1/N=C1\SCCN1C(=S)Nc1ccc(S(=O)(=O)/N=C/N(C)C)cc1`, the figure is inactive: > 100 µM; as for `Cn1ncc2c(c1=O)Nc1ccccc1S2(=O)=O`, inactive: > 100 µM; as for `CC(C)(C)c1cc(C(C)(C)C)c(SSc2c(C(C)(C)C)cc(C(C)(C)C)c(O)c2O)c(O)c1O`, inactive: 20.5 µM. As for `COc1cc(C=O)cc(/C=N/c2ccccn2)c1O`, the figure is inactive: 36.9 µM; as for `C/C(=C\CNc1ncnc2c1ncn2C1CCCCO1)COP(=O)(O)O` (stereo unspecified), inactive: > 100 µM. As for `O=C(NNc1nc(-c2ccccc2)cs1)C(F)(F)F`, the figure is inactive: 62.7 µM. For `O=C1C=C(Nc2ccccc2C(=O)c2ccccc2)c2ccccc2C1=O`, the GI50 is inactive: 57.3 µM. For `O=[N+]([O-])c1cc(C(F)(F)F)ccc1S(=O)(=O)N[C@@H]1CCCC[C@H]1NS(=O)(=O)c1ccc(C(F)(F)F)cc1[N+](=O)[O-]`, the GI50 was inactive: 22.1 µM.

For the compound `CC(C)OC(=O)C1=C2c3ncccc3C(=O)N2[C@@H](Cl)[C@H](Cl)[C@H]1Cl`, the GI50 was inactive: > 100 µM. On to `Cc1cn(C2CC(OC(c3ccccc3)(c3ccccc3)c3ccccc3)C(COC(c3ccccc3)(c3ccccc3)c3ccccc3)O2)c(=O)[nH]c1=O` (stereo unspecified), for which the GI50 was inactive: 38.2 µM. With `N=C(N)SCCON1C(=O)c2ccccc2C1=O`, the GI50 was inactive: > 100 µM. As to `CC(C)(C)CC(C)(C)NC(=S)NO`, the GI50 is inactive: > 100 µM. As for `CCOC(=O)C1(C(=O)OCC)C[C@@H](C)[C@@H](O)C1`, the figure is inactive: > 100 µM. With `CC(=O)NNC(=S)N/C=C1/C(=O)Oc2ccccc2C1=O`, the GI50 was inactive: > 100 µM.

On to `O=C(CCl)N1CCN(c2ccccn2)CC1`, for which the GI50 was inactive: 21.6 µM. For `CCOC(=O)C1S/C(=N\c2ccc(C)c(C)c2)N=C1C` (stereo unspecified), the GI50 was inactive: > 100 µM. Consider `COC(=O)c1ccccc1NC(=S)NN(C)C`, for which the GI50 was inactive: > 100 µM. The value for `O=C(Nc1ccn(CCI)c(=O)n1)c1ccccc1` was inactive: > 100 µM; that for `Clc1ccc(NCc2nnc(CCCCCCCCc3nnc(CNc4ccc(Cl)cc4)o3)o2)cc1` was inactive: > 100 µM; that for `Nc1ccccc1Sc1ccc(Cl)cc1` was inactive: 37.5 µM. With `NC(=S)N/N=C1/CCCC2CCCC[C@@H]12` (stereo partly specified), the GI50 is inactive: > 100 µM. In the case of `COc1ccc2nc3cc(Cl)ccc3c(NCCCN(C)CCCNc3ccc4ncn5c6ccccc6c(=O)c3c45)c2c1`, the GI50 was active: 1.02 µM. As to `C(=C/c1nnnn1-c1ccccc1)/Nc1ccccc1`, the GI50 is inactive: 49.4 µM. Regarding `CN1CCN(CC(=O)N2CCCn3c2nc2ccccc2c3=O)CC1`, the GI50 is inactive: > 100 µM. Regarding `Oc1ccc(Cl)cc1C1=NC(NCNC2=NC(c3ccccc3)CC(c3cc(Cl)ccc3O)=N2)=NC(c2ccccc2)C1` (stereo unspecified), the GI50 was inactive: 41.4 µM. `CC(C)(Br)C(Br)CCC1(C2CO2)CO1` (stereo unspecified): the GI50 was inactive: > 5 µM. The value for `O=C(CC1C(=O)Nc2ccccc2[S+]1[O-])Nc1cccc(Cl)c1` (stereo unspecified) was inactive: > 51.3 µM; that for `Nc1nc2c(ncn2C2OC(CO)C(O)C2N)c(=O)[nH]1` (stereo unspecified) was inactive: > 100 µM; that for `CCCCCCCCCCCCCCC(C(=O)[O-])[n+]1ccccc1` (stereo unspecified) was inactive: > 100 µM. Take `COc1ccc(CCNCCCC2c3ccccc3-c3ccccc32)cc1OC`: the GI50 was inactive: 12.7 µM. The value for `CCOC(=O)c1csc(NC(=O)CCN2CCCCC2)n1` was inactive: > 100 µM. On to `CC1(C)OCC(CO)(CO)CO1`, for which the GI50 was inactive: > 100 µM.

For the compound `COC(=O)C1CN=CN1CCc1ccccc1` (stereo unspecified), the GI50 is inactive: > 100 µM.

Take `COC(=O)C(Cc1c[nH]c2ccccc12)NP(=O)(O)OCC1OC(n2cc(Br)c(=O)[nH]c2=O)CC1O` (stereo unspecified): the GI50 was inactive: > 100 µM. The value for `O=c1[nH]nc(-c2ccccc2)n1-c1ccncc1` was inactive: > 100 µM. `CSC(=N)N1N=C2/C(=C/c3ccccc3)CCC[C@H]2[C@H]1c1ccccc1`: the GI50 was inactive: 3.54 µM. With `OCC1C2CCC3(OCCO3)C12` (stereo unspecified), the GI50 is inactive: > 100 µM. `S=C(/C=C1\SC(=N\c2ccccc2)/C(=N/c2ccccc2)N1c1ccccc1)Nc1ccccc1`: the GI50 was inactive: > 100 µM. `Cc1ccccc1/N=N/C(C(=O)c1ccccc1)C(=O)c1ccccc1`: the GI50 is inactive: 32.2 µM. In the case of `CC(=O)NC1C(OCc2ccccc2)OC(CO)C(O)C1OCC(=O)N[C@@H](C)C(=O)N[C@H](CCC(=O)NCCCNc1ccc([N+](=O)[O-])c2[nH]c3ccccc3c(=O)c12)C(N)=O` (stereo partly specified), the GI50 was inactive: 45.6 µM. With `O=[PH](O)c1cccnc1`, the GI50 was inactive: > 100 µM. As for `CN1C2CCC1CC(=CCOC(c1ccc(F)cc1)c1ccc(F)cc1)C2`, the figure is inactive: 14.8 µM.

Regarding `COC(=O)c1nc(Cl)nc(Cl)c1Cl`, the GI50 is inactive: 44.5 µM. Take `CNC(=O)N(CCC#N)CCN(C(=O)N(C)C)c1ccccc1`: the GI50 was inactive: > 100 µM. In the case of `C[C@]12CCC(=O)C=C1CC[C@@H]1[C@@H]2CC[C@]2(C)C(=O)/C(=C/c3ccncc3)C[C@@H]12`, the GI50 was inactive: 11.6 µM. In the case of `CNC(=S)/N=c1/sc(NC)nc2sc3c(c12)CCCC3`, the GI50 is inactive: > 100 µM. As for `Cc1ccc(-n2nc(C(OC3OC(CO)C(O)C(O)C3O)C(O)CO)c3nc4cc(C)c(C)cc4nc32)cc1` (stereo unspecified), the GI50 was inactive: > 100 µM. `N=C(N)N/N=C(/CC1OC(=O)c2ccccc21)c1ccc2ccccc2c1` (stereo unspecified): the GI50 was inactive: 18.9 µM. With `COc1ccc(-c2cc(C3CC3)nc(SCC(=O)O)c2C#N)cc1`, the GI50 was inactive: > 100 µM.

For `CCc1ccc(NC(=O)NC(=O)c2ccccc2[N+](=O)[O-])cc1Oc1ncc(Cl)cn1`, the GI50 was active: < 0.0152 µM.

Turning to `CCCn1cnc2c(/N=N/O)ncnc21`, the GI50 was inactive: > 100 µM. Consider `C[C@@H]1C(=O)CC2(O)[C@@]13C[C@@H](OC(=O)[C@@H]3O)[C@@H](C)[C@@]21COC1=O` (stereo partly specified), for which the GI50 was inactive: > 100 µM.

On to `O=C1C(Cl)=C(NCCN2CCOCC2)C(=O)c2ncccc21`, for which the GI50 was inactive: 1.44 µM.

Take `COc1nc(C#CC2(O)CCCCC2)nc(OC)n1`: the GI50 is inactive: 15.4 µM. The value for `CC(=O)Nc1ccc(-c2nc3ccccc3s2)cc1O` was inactive: 56.5 µM; that for `CC(N)(Cc1c[nH]c2ccccc12)C(=O)O` (stereo unspecified) was inactive: > 100 µM; that for `COc1cc2c(cc1OCCCN1CCN(C)CC1)N=C[C@@H]1CCCN1C2=O` was inactive: 3.92 µM. As for `NS(=O)(=O)c1ccc(/C=C/c2ccc(O)c(O)c2)cc1`, the GI50 is inactive: 44.6 µM.
